Measured values: the supplement of paper PMC10126150
Values marked as one replicate rest on one cluster of the flow cell; about a third of the high ones do not repeat.

System: ATP
Test: switch fluorescence ratio, 500 uM ATP over buffer (Cy3 cluster intensity, sum of 5 cycles each) (fold (ratio)); higher = stronger signal-on switching upon ATP binding; sequences stand for … in TCGTCGGCAGCGTCAGATGTGTATAAGAGACAGTTTTTTTTTTTTTTTTTTTTTTTTT…TC
Conditions: aptamer strand: ATP DNA aptamer (quencher-CACCTGGGGGAGTATTGCGGAGGAAGG + anchor), 100 nM annealed; ATP concentration: 500 uM; one replicate
In short: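 For every switch-domain sequence, the fluorescence ratio is the mean of per-cluster values, each being summed target-cycle Cy3 intensity over summed buffer-cycle Cy3 intensity. Clusters outside 100-1000 RFU were excluded. On a modified Illumina MiSeq flow-cell, the Cy3-labelled switching-strand clusters were annealed to 100 nM quencher-labelled ATP aptamer, imaged in selection buffer and then after 15 min with 500 uM ATP at 22 °C. Five such cycles were run, with NaOH stripping and re-annealing between them.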
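Note: ATP exposure 15 min at 22 °C before imaging.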

Sequence	switch fluorescence ratio
ATCCTAGTCA	0.991
GGAAGTGTGA	1.04
ACGCGGTGGT	0.944
TCCGCGCGAT	2.03
GAGTAATTAT	1.03
TGGTTAGAAC	1.01
GAGTCAGGAC	1.01
ACGACACTGT	1.52
AAAATAAGTA	0.985
GTAATAAGCA	1.06
ACGGTGCACC	1.03
CCATTCGAGT	1.03
GGGAATCAGC	0.985
GATCATATCT	1.04
ACAGTGACCT	1.3
ATTCTTTCGT	0.99
CTATCGCCAA	1.8
CAAACCTAT	1.05
GTACGTAAGC	1.33
TAGGGCGTGG	0.992
ATTTAAAATA	1.05
TATTAGTGGT	0.99
AAGTATTGGG	1.02
CACTTAACGG	1.4
TCAAATGGTC	1.08
CCATAACGGA	0.986

Sequence	switch fluorescence ratio
CTACAATTGT	1.03
TCCTAATTTT	1.01
AAGGTCATCG	1
GAATTGAGTA	0.995
ATCTCGGGGT	0.957
GTATTTTGTC	0.992
CTAGGAGCGA	1.12
CAAAATAGTA	0.969
TTGTCTAGC	1.03
AGCGTCAATG	1.01
GTGGTCGGAA	0.999
TAGAGACTC	1.02
AACGGGGCGA	0.985
CAACCGTCAC	1.83
AAGATTTCCG	0.969
CTGATGGGGC	1.01
AACCGCCCTG	1.33
GGTGCCCTCC	1.13
TGGAAAAAAA	1.02
CAACGTCCAG	1.04
GGTTGTGAGA	0.944
TACAGGAATC	1.06
GTGGTCGGG	1.01
ATGTCGCAA	1.87
TTATTATACC	1.04
GGGCCTGCGA	1.04

Sequence	switch fluorescence ratio
GGTACTGTAC	1.42
TTCCAGGTGT	1.06
TACGTTCATT	1.1
AGTGCAGATC	1.06
CTGTAGACCA	0.994
TAAACCTGAG	1.63
ATAAGTGGTA	0.977
TGGGCAAAGG	1
AGCCTTTTGA	1.03
AATGCTTGCC	0.996
AACGAAAGCG	1.06
GCCTCAACTC	1.05
TTGCTCCTGC	0.998
ACTCTGTACG	1.04
TGGAATACTA	1.23
CTTAACCACG	1.08
ATGTGTCCAC	0.995
ACTAGCCTTG	0.983
CCGTTACAGT	1.11
GGGTCGAAGC	0.951
GACCCAGTAT	1.09
ATGGTGTGGT	0.995
TGGGATAGCC	1.07
GGGAAGCACC	1.17
CCATGAGAAA	1.04
ACGCTGTCAT	0.995

Sequence	switch fluorescence ratio
GGCAGGTGTG	1.16
ATTATCCTCA	1.01
TTTATGCCTA	1.07
TTAATGTATG	1.01
GTGAAGGGCA	1.03
GGGTTTGCTC	1.02
GCCCTATACG	1.02
CGAAGGATTC	1.1
CTCTTCGGAG	1.01
AGAGCATGTT	0.973
GATCTACT	1.03
AACTTTACGG	1.23
AGGACGCAT	1.82
TTCTTCGGAA	2.88
ACTTTCGCTC	1.13
TGGGGCCAGC	0.959
CTAATGTGAT	0.98
CCATTAAAAT	1.01
GGGGCGGTTG	0.94
TTTCTAATCT	0.929
CAGTATGCGG	1.02
GCCGGAGTCA	1.02
CCAAAAAGGT	1.06
TCCAGTACAG	1.05
AAAATATGC	0.988
GCCGATGCCC	1.09

Sequence	switch fluorescence ratio
TTAATATAAA	0.976
TTGCAGCGGT	1.17
ATACAGCATG	1.01
TCTCACGATC	1.28
TTAAAAGCAC	1.11
GCAAGAAACA	1.01
TTAGGTATCC	0.999
ACTCTTGGAG	1
GTTGAATAAT	1.01
GACCGAACCA	1.24
GGCCACCTAA	1.02
CGCTGTACCC	2.26
GGGGCTCCCG	0.974
CCTGTCTATC	1.07
CGAGGATAAT	1.04
CCGAGAATGT	1.15
CGAACCTGTT	0.976
ACAGGGCGAC	0.991
TATGGTGCTG	1.01
GCTCATACGA	2.92
TGAGGCGTAA	1.07
GCTTGCCAGG	1.09
TAAGAAGAAC	1.06
GCTTTGACA	0.97
GGACTTGGCG	0.98
TATATGTTTA	1.04

Sequence	switch fluorescence ratio
GGCATCTGGC	1.03
CACATTTATT	1.03
CATAGGGCTG	0.963
CGTCGTCATC	1
CCGGTTTACC	1.04
AATGGGTCCT	1.03
TAAGAAGGA	0.994
AAGTGGTAA	0.993
GTTAGCACCA	0.985
CTGATAGACC	0.985
AACCTGTATC	1.52
ACCGCGAGCA	1.09
GCGTCCATTT	0.969
GACGAAGGTA	1.02
TGGAAGAAAA	0.998
CTCTTAATGT	0.986
ACCACCATCG	1.15
GTACTTCGGA	0.998
TGATTCACGC	1.04
CATGCGGAGG	1.01
TTATGGTACT	1.06
ATTCAATTAA	1.01
GGAGGACGTG	1.01
